Reference: paper PMC4336329 (PLoS ONE, 2015)
Hit rate of the full screen: of about 310,000 compounds, about 14,000 (4.5%) showed an effect of 50% or more. Effects have a minus sign here. The list shows a part of the results.

Target: human ether-à-go-go-related gene (hERG) potassium channel (human, UniProt Q12809)
Test: primary screen, population patch clamp on CHO cells stably expressing hERG
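Also: peak tail current of the secondary pulse compared with the same well before compound.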

human ether-à-go-go-related gene (hERG) potassium channel, sequence (Q12809 whole entry, looked up): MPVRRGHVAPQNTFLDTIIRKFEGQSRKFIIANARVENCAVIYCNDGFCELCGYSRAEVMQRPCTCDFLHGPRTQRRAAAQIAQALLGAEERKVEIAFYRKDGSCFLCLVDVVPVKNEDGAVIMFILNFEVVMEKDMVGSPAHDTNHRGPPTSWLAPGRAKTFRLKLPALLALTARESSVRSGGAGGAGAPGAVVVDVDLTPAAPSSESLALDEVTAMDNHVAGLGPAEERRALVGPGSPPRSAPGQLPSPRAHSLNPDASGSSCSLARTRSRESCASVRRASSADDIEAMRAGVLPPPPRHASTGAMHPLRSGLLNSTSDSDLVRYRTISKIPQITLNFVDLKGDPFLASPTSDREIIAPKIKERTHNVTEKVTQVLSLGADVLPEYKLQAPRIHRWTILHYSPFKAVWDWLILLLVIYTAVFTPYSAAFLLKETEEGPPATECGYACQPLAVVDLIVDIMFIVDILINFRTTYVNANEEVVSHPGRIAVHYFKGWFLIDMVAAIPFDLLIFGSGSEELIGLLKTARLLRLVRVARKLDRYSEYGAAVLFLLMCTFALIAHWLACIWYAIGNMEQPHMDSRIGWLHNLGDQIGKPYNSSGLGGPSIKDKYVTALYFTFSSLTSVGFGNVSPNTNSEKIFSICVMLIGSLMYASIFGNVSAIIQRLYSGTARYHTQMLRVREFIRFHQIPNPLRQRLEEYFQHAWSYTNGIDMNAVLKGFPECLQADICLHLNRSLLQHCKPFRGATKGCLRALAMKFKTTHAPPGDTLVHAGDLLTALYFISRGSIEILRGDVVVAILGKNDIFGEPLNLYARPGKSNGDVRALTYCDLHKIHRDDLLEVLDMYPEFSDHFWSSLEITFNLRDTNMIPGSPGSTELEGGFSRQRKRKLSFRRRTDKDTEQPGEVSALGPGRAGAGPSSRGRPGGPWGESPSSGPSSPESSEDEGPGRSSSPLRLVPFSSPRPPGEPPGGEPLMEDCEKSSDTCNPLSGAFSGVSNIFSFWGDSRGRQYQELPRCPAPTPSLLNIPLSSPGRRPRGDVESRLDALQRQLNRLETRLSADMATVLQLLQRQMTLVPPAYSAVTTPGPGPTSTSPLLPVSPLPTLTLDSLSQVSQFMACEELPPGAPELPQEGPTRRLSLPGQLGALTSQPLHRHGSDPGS

SMILES | hERG current change (%, negative = inhibition) at 10uM [%]
Cc1ccc(NC(=O)c2oc3ccccc3c2NC(=O)c2ccc3c(c2)OCO3)cc1 | -4.41
CCc1ccc(S(=O)(=O)NCC2(N3CCOCC3)CCCCC2)cc1 | -34.8
CC(C)C(=O)Nc1cccc(NC(=S)NC(=O)C(c2ccccc2)c2ccccc2)c1 | -5.95
Cc1ccc(N(CC(=O)N2CCOCC2)S(C)(=O)=O)cc1 | 16.7
O=C(NN=C1CCCC1)c1ccccc1OCCOc1ccccc1 | 1.55
Cc1cccnc1CN1CCN(Cc2nc(Cc3cccc(F)c3)no2)CC1 | -29.5
Cn1c2ccccc2c2c(C(=O)N3CCC4(CC3)OCCO4)cn(C3CCCCC3)c(=O)c21 | -15.2
COC(/C=C/Nc1ccc(C)cc1)=C(C#N)C#N | -38
Cc1ccc(C2=NN(S(C)(=O)=O)C(c3ccc4c(c3)OCO4)C2)cc1 (stereo not drawn) | -2
CN(C(=O)C12CC3CC(CC(C3)C1)C2)C1(C)CCS(=O)(=O)C1 (stereo not drawn) | -4.12
CCOCCCn1c(=S)[nH]c2cc(C(=O)NC3CCCCC3C)ccc2c1=O (stereo not drawn) | -1.79
CC(=O)c1ccc(Sc2nnc(C)s2)c([N+](=O)[O-])c1 | 1.07
Nc1nnc(SCC(=O)N2CCN(c3ccccc3)CC2)n1-c1ccccc1 | 15.2
COc1ccccc1NC(=O)c1cc(N)cc(C(=O)Nc2ccccc2OC)c1 | -50.6
O=C(CCNS(=O)(=O)c1cccs1)Nc1ccccc1F | 10.4
NS(=O)(=O)c1cccc(NC(=O)C(Cc2ccccc2)NC(=O)c2ccccc2)c1 (stereo not drawn) | 3.2
CCC(=O)Nc1cccc(C(=O)c2ccccc2)c1 | -0.703
Cc1cc2ccccn2c1C(=O)c1cccc(F)c1 | -11.6
COc1ccc(-c2c[n+]3c(n2-c2c(C)n(C)n(-c4ccccc4)c2=O)CCCCC3)cc1.[Br-] | 4.43
CC1CCCCC1NC(=O)CCS(=O)(=O)c1ccc2c(c1)NC(=O)CS2 (stereo not drawn) | -1.82
Cc1csc(NC(=O)CSc2nc3ccccc3c3c2CCCC3)n1 | 16.4
CCC1=NN(C(=O)Cc2ccc([N+](=O)[O-])cc2)C(O)(c2ccncc2)C1 (stereo not drawn) | -11.9
COc1ccccc1OCC(=O)NNC(=O)C1CCN(c2ncnc3sc(C)c(C)c23)CC1 | 10.5
CCOC(=O)N1CCN(C(=O)Nc2ccc3nc(-c4ccccn4)c(-c4ccccn4)nc3c2)CC1 | 7.65
CC(C)(C)C(Cn1ccnc1)NC(=O)c1ccc2nc(C3CC3)oc2c1 (stereo not drawn) | -6.71
Cc1cc(=O)n2c3c(sc2n1)C(=O)N(Cc1ccccc1)C3=O | -0.36
NC(=O)C1=CN(Cc2ccc(Cl)cc2)CCC1C(F)(F)F (stereo not drawn) | 6.5

SMILES | hERG current change (%, negative = inhibition) at 10uM [%]
CC(=O)N1CCc2cc(S(=O)(=O)NC(CC(C)C)C(=O)N3CCn4c3nc3ccccc34)ccc21 (stereo not drawn) | -60
Cc1cc(NC(=O)c2ccccc2F)on1 | 7.01
Br.COc1ccccc1C1=Nn2c(COc3ccccc3)nnc2SC1 | -14
CCCNC(=O)c1ccc(N2CCC3(CC2)CC(c2cccc(Br)c2)=NO3)c(NC(=O)c2ccc(Br)cc2)c1 | 6.46
CSc1nc(-c2ccco2)cc(-c2ccccc2)c1C#N | 3.95
Cc1ccc(S(=O)(=O)CCC(=O)OCC(=O)NC(N)=O)cc1 | 7.58
COc1ccc(CC(=O)N[C@@H](CCSC)C(=O)N2CCC3(CC2)NCCc2[nH]cnc23)cc1 | 5.32
COc1ccc(C(=O)N2CCC(n3nccc3NC(=O)C3CC3)CC2)cc1F | -26.8
O=C(CSC1=NS(=O)(=O)c2cc(F)ccc2N1)Nc1ccccc1F | 13.5
CCCCN(CCCNC(=O)C1CCCN(S(=O)(=O)CC)C1)Cc1ccccc1 (stereo not drawn) | -31.5
O=C(Nc1ccc(S(=O)(=O)Nc2ncccn2)cc1)C1CC(=O)N(c2ccc(Cl)cc2)C1 (stereo not drawn) | 1.56
CCC(C)c1ccccc1N1CC(C(=O)N(C)CC(=O)Nc2cccc(F)c2)CC1=O (stereo not drawn) | 1.98
Cc1ccc(NC(=O)CCN2CCN(C/C=C/c3ccccc3)CC2)cc1.Cl | -90.9
CC(=O)c1cccc(CN2CCC(CO)(CCCc3ccccc3)CC2)c1 | -63.9
CCCn1c(-c2cccc(F)c2)nc2c1c(=O)[nH]c(=O)n2Cc1ccccc1 | 17.5
CCN(CC)CCNC(=O)c1ccc(Cl)c(S(=O)(=O)Nc2ccc(Cl)cc2)c1 | -37.7
CC1=C(C(=O)OC2CCCCC2)C(c2cccnc2)n2nnnc2N1 (stereo not drawn) | -1.43
COc1ccc(C(=O)/C=C/NCc2ccc(F)cc2)cc1OC | -65
COc1ccc(OC)c(N(CC(=O)N2CCCC2)S(=O)(=O)c2ccc(OC)c(OC)c2)c1 | 4.84
NC(=O)c1ccccc1OCc1nc2ccccc2s1 | 1.07
Cc1ccccc1N1CCN(CCC(=O)Nc2ccc(F)cc2)CC1 | -67.5
CCCCN(C(=O)c1ccc(OC)c([N+](=O)[O-])c1)c1c(N)n(CCC)c(=O)[nH]c1=O | 15.4
O=C1c2ccccc2C(=O)N1CCN1CCCCC1 | -6.2
COc1cccc(-c2cc(C(=O)Nc3cc(OC)c(OC)c(OC)c3)no2)c1 | -27.1
CCOC(=O)N1CCN(CC(c2ccccc2)c2ccccc2)CC1 | -13
NC(=O)c1nsc(C(=O)N(Cc2ccccc2F)C(C(=O)NCC2CCCO2)c2ccc(F)cc2)c1N (stereo not drawn) | -2.45
O=C(CSc1nn(-c2ccc(F)cc2)c(=S)s1)NC1CCS(=O)(=O)C1 (stereo not drawn) | -11.3
